The whole screen tested about 330,000 compounds, of which about 4,200 (1.3%) were called active. Inconclusive results, whose numbers are uncertain, are shown with a selection of clear calls. The call rests on the fitted dose curve; in most records, active means well fitted activation curve with a large enough effect; inconclusive means small, poorly fitted or top-dose-only effect; inactive means no such curve, though single readings can be large or run the other way. A potency beside an inconclusive call is a rough fit, not a confirmed value.
Assay: qHTS screen for small molecules that induce genotoxicity in human embryonic kidney (HEK293T) cells expressing luciferase-tagged ELG1; further: nearly all actives have a fitted effect of over 60% in size
Settings: HEK293T ELG1-luciferase reporter, luminescence, 16 h; series mostly up to 46 µM
Outline: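 DMSO vehicle served as control against compound-treated ELG1-luciferase HEK293T cells; exposure lasted 16 hr at 37 °C and 5% CO2, followed by ONE-Glo luminescence detection after 30 min.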
Potency means the concentration at half of the fitted maximal effect; tags describe the fitted curve by direction and shape.

Which Potency does the source give for `COc1ccc(S(=O)(=O)N2CCC(C(=O)NCCCc3ccccc3)CC2)cc1` here?
Its Potency is “inactive”.

Which Potency does the source give for `COc1cccc(CC(=O)OCC(=O)NCC(=O)Nc2cccc(C)c2C)c1` here?
Its Potency is “inactive”.

Which Potency does the source give for `NNC(=S)Nc1ccc(Cl)cc1` here?
Its Potency is “inactive”.

For `COc1ccccc1/C=C/C=N/NC(=O)c1ccc2nc[nH]c2c1`, which Potency is on record?
The Potency was “inactive”.

For `CCc1cc2c(C)ccc(C)c2nc1SCC(=O)Nc1c[nH]c(=O)[nH]c1=O`, which Potency is on record?
Its Potency is inconclusive: 29.1 µM [activator, single point].

Which Potency does the source give for `CC(/C=N/NC(=O)c1cccc(F)c1)=C\c1ccccc1` here?
Its Potency is inconclusive: 0.58 µM [activator, full curve].

With `CCOc1ccccc1N1CCN(CC(=O)N(CC(C)C)c2c(N)n(CC(C)C)c(=O)[nH]c2=O)CC1` as the compound, how does the Potency read?
The Potency was “inactive”.

Which Potency does the source give for `CC1Cc2cc(-c3csc(NC(=O)Cc4cccs4)n3)ccc2N1S(C)(=O)=O` (configuration not stated) here?
Its Potency is inconclusive: 4.61 µM [activator, single point].

With `Cc1ccc(-c2cc(N)n(-c3ccc(C)cc3)n2)cc1` as the compound, how does the Potency read?
The Potency was inconclusive: 18.4 µM [activator, partial curve].

With `COc1ccc(C2=NN(C(=O)c3ccccc3C(=O)O)C(c3ccccc3O)C2)cc1` (configuration not stated) as the compound, how does the Potency read?
Its Potency is inconclusive: 9.2 µM [activator, partial curve].

With `Cc1ccc(OCc2cc(C(=O)N(C)CC3CCOCC3)no2)cc1C` as the compound, how does the Potency read?
Its Potency is inconclusive: 16.4 µM [activator, partial curve].

With `Cc1c(C(=O)OCC(=O)N2CCC(C)CC2)oc2ccccc12` as the compound, how does the Potency read?
The Potency was inconclusive: 18.3 µM [activator, partial curve].

For `Nc1ccc(O)c(-c2nc3ccccc3s2)c1`, which Potency is on record?
Its Potency is inconclusive: 18.4 µM [activator, partial curve].

For `Cn1cnnc1SCC(=O)Nc1ccc2nc(SCc3ccccc3)sc2c1`, which Potency is on record?
The Potency was inconclusive: 8.2 µM [activator, partial curve].

For `CCOc1ccc(-c2nc(C)c(C(C)=O)n2O)cc1`, which Potency is on record?
Its Potency is inconclusive: 29.1 µM [activator, single point].

Which Potency does the source give for `CCc1nn(C(CC)C(=O)NCc2cccc(OC)c2)c(=O)c2cc3occc3n12` (configuration not stated) here?
The Potency was “inactive”.

For `COCCCC1CCN(C(=O)c2cc(COc3cc(C)ccc3C)on2)CC1`, which Potency is on record?
The Potency was inconclusive: 13 µM [activator, partial curve].

With `Fc1ccccc1-c1nc(-c2cnccc2C(F)(F)F)no1` as the compound, how does the Potency read?
The Potency was “inactive”.

Which Potency does the source give for `COc1ccc(/C=C\C(=O)NCC(=O)N/N=C/c2ccc(O)cc2O)cc1` here?
The Potency was inconclusive: 25.9 µM [activator, single point].

Which Potency does the source give for `Cc1ccc(NC(=O)c2ncn(CC(=O)NCc3nc4ccccc4[nH]3)n2)cc1C` here?
The Potency was inconclusive: 23.1 µM [activator, single point].

Which Potency does the source give for `Cc1[nH]n(-c2ccccc2)c(=O)c1/C=N\NC(=O)C1COc2ccccc2O1` (configuration not stated) here?
Its Potency is inconclusive: 18.4 µM [activator, partial curve, poor fit].

For `CC(C)c1nnc(NC(=O)c2cccc(NC(=O)C(F)(F)F)c2)s1`, which Potency is on record?
Its Potency is inconclusive: 6.51 µM [activator, partial curve].

With `COc1ccc(C2=CC(c3sccc3C)n3nnnc3N2)cc1` (configuration not stated) as the compound, how does the Potency read?
The Potency was inconclusive: 16.4 µM [activator, partial curve, poor fit].

Which Potency does the source give for `O=C(NCc1cccs1)C1CCCN1C(=O)Nc1ccc(F)cc1` (configuration not stated) here?
Its Potency is “inactive”.

With `COc1ccc2c(c1)CC/C2=N\OC(=O)c1cccc(C)c1` as the compound, how does the Potency read?
The Potency was inconclusive: 4.61 µM [activator, partial curve].

For `Cc1ccnc(NC(=O)CNC(=O)c2ccccc2Br)c1`, which Potency is on record?
Its Potency is inconclusive: 29.1 µM [activator, partial curve, poor fit].

Which Potency does the source give for `Cc1ccc(NC(=O)c2cc(-c3cccc(O)c3)on2)cc1C` here?
Its Potency is inconclusive: 16.4 µM [activator, partial curve, poor fit].

Which Potency does the source give for `CC(=O)Nc1ccc(N/C=C/C(=O)c2ccco2)cc1` here?
The Potency was active: 4.61 µM.

With `NNC(=O)c1ccc(COc2ccc3c(c2)CCC3)cc1` as the compound, how does the Potency read?
The Potency was “inactive”.

For `c1ccc(-c2cc(-c3ccccc3)on2)cc1`, which Potency is on record?
The Potency was active: 5.8 µM.

With `O=C(c1ccc(Cl)s1)N(Cc1nnc(-c2ccccc2Cl)o1)C1CC1` as the compound, how does the Potency read?
The Potency was inconclusive: 18.3 µM [activator, single point].

With `C=CCN1C(=O)/C(=C\c2ccc(OC(=O)c3ccco3)c(OC)c2)SC1=S` as the compound, how does the Potency read?
The Potency was “inactive”.

For `O=C(NCC(=O)N1CCN(Cc2c(F)cccc2Cl)CC1)c1cccc(Cl)c1`, which Potency is on record?
Its Potency is “inactive”.

For `CC1CCCN(C(=O)C(=O)Nc2ccc3nc4n(c(=O)c3c2)CCCCC4)C1` (configuration not stated), which Potency is on record?
Its Potency is “inactive”.

For `Cc1ccsc1/C=N/NC(=O)C(=O)NCC(C)C`, which Potency is on record?
The Potency was inconclusive: 16.4 µM [activator, partial curve, poor fit].

With `Cc1ccc(C(=O)Nc2nn(C)c3cccc(F)c23)cc1` as the compound, how does the Potency read?
Its Potency is inconclusive: 18.3 µM [activator, partial curve, poor fit].

For `Cc1cc(C)nc(N(C#N)CCOc2ccc(Cl)cc2)n1`, which Potency is on record?
Its Potency is “inactive”.

For `O=C(NC(=S)Nc1ccc(N2CCOCC2)cc1)c1ccco1`, which Potency is on record?
Its Potency is inconclusive: 8.2 µM [activator, partial curve, poor fit].

With `CC(=O)Nc1cnc(NC(=O)c2cccc(F)c2)cc1C` as the compound, how does the Potency read?
Its Potency is active: 14.6 µM.

Which Potency does the source give for `O=C(CCl)N(c1ccc(Cl)cc1)c1c[nH]c2ccccc12` here?
The Potency was inconclusive: 29.1 µM [activator, partial curve, poor fit].

With `O=C(Nc1cccc(S(=O)(=O)NCc2ccco2)c1)c1cc(-c2ccc(F)cc2)nc2ccccc12` as the compound, how does the Potency read?
The Potency was “inactive”.

For `COc1ccc(S(=O)(=O)N2CCCCCC2)cc1C(=O)N(C)Cc1ccccc1F`, which Potency is on record?
Its Potency is “inactive”.

For `CC1CC(C)CN(CC(=O)Nc2ccc3c(c2)OCCO3)C1` (configuration not stated), which Potency is on record?
The Potency was inconclusive: 13 µM [activator, partial curve, poor fit].

Which Potency does the source give for `Fc1cccc(/C=N/Nc2ccc3ccccc3n2)c1` here?
The Potency was inconclusive: 1.46 µM [activator, partial curve, poor fit].

For `CC(=O)Nc1ccc(N=Nc2ccc(O)cc2)cc1`, which Potency is on record?
The Potency was inconclusive: 9.2 µM [activator, partial curve].

With `CCOc1cccc(C2/C(=C(/O)c3ccc4c(c3)CC(C)O4)C(=O)C(=O)N2Cc2ccncc2)c1` (configuration not stated) as the compound, how does the Potency read?
The Potency was “inactive”.

Which Potency does the source give for `O=[N+]([O-])C(=C1SCCS1)C(=C(Cl)Cl)N1CCCCC1` here?
Its Potency is inconclusive: 1.83 µM [activator, full curve, poor fit].
